Laboratory results taken from the supplement of paper PMC12217912.
Some of the results follow. The full chains were built here from the parent and the listed change. Values near 0.05 are background.

B1: TEV protease; numbered along this chain (parent)
chain: MGESLFKGPRDYNPISSSICHLTNESDGHTTSLYGIGFGPFIITNKHLFRRNNGTLVVQSLHGVFKVKDTTTLQQHLVDGRDMIIIRMPKDFPPFPQKLKFREPQREERICLVTTNFQTKSMSSMVSDTSCTFPSGDGIFWKHWIQTKDGQCGSPLVSTRDGFIVGIHSASNFTNTNNYFTSVPKNFMELLTNQEAQQWVSGWRLNADSVLWGGHKVFMVKPEEPFQPVKEATQL

Variants of: B1
Assay: raw area under fraction-flipped curve 0-4 h after induction (AUC4h, not background-subtracted), DNA-recorder readout of cleavage of the substrate (dimensionless); higher = more cleavage of the substrate by the protease variant
Settings: temperature: 34 °C; time window: 0-4 h after rhamnose induction
Method: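 In vivo DNA recorder in E. coli TOP10(DE3) ΔrhaA at 34 °C. Each TEVp single-site mutant (parent TEVp 0) is paired with a single-site variant of the 7-mer TEVs (canonical ENLYFQ|S). The substrate sits between flexible linkers in a Bxb1-sfGFP-TEVs-SsrA fusion, so cleavage stabilises Bxb1 and speeds flipping of a recombination array, read by NGS. The value is the raw area under the fraction-flipped curve over 0-4 h after rhamnose induction (AUC4h), with ≥20 reads per time point. It is not background-subtracted; inactive controls average about 0.047.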
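Further: Bxb1 expression induced with 0.2% (w/v) L-rhamnose at OD600 near 0.5, cultures sampled hourly, flipped fraction per protease–substrate barcode pair counted by paired-end Illumina sequencing.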

Variant | area with substrate ENLDFQS | area with substrate ENLFFQS | area with substrate ENLGFQS | area with substrate ENLHFQS | area with substrate ENLKFQS | area with substrate ENLNFQS | area with substrate ENLPFQS | area with substrate ENLSFQS | area with substrate ENLIFQS | area with substrate ENLLFQS | area with substrate ENLQFQS | area with substrate ENLVFQS | area with substrate ENLEFQS | area with substrate ENLMFQS | area with substrate ENLRFQS | area with substrate ENLWFQS | area with substrate ENLTFQS
MGESLFKGPRDYNPISSSICHLTNESDGHTTSLYGIGFGPFIITNKHLFRRNNGTLVVQSLHGVFKVKDTTTLQQHLVDGRDMIIIRMPKDFPPFPQKLKFREPQRIERICLVTTNFQTKSMSSMVSDTSCTFPSGDGIFWKHWIQTKDGQCGSPLVSTRDGFIVGIHSASNFTNTNNYFTSVPKNFMELLTNQEAQQWVSGWRLNADSVLWGGHKVFMVKPEEPFQPVKEATQL [E107I] | 0.0627 | 0.0512 | 0.0726 | 0.06 | 0.0869 | 0.0727 | 0.083 | 0.0602 | – | – | – | – | – | – | – | – | –
MGESLFKGPRDYNPISSSICHLTNESDGHTTSLYGIGFGPFIITNKHLFRRNNGTLVVQSLHGVFKVKDTTTLQQHLVDGRDMIIIRMPKDFPPFPQKLKFREPPREERICLVTTNFQTKSMSSMVSDTSCTFPSGDGIFWKHWIQTKDGQCGSPLVSTRDGFIVGIHSASNFTNTNNYFTSVPKNFMELLTNQEAQQWVSGWRLNADSVLWGGHKVFMVKPEEPFQPVKEATQL [Q105P] | 0.0475 | 0.0312 | – | 0.0566 | 0.0493 | 0.0579 | 0.0497 | 0.0378 | 0.0454 | 0.0514 | 0.0236 | 0.042 | – | – | – | – | –
MGESLFKGPRDYNPISSSICHLTNESDGHTTSLYGIGFGPFIITNKHLFRRNNGTLVVQSLHGVFKVKDTTTLQQHLVDGRDMIIIRMPKDIPPFPQKLKFREPQREERICLVTTNFQTKSMSSMVSDTSCTFPSGDGIFWKHWIQTKDGQCGSPLVSTRDGFIVGIHSASNFTNTNNYFTSVPKNFMELLTNQEAQQWVSGWRLNADSVLWGGHKVFMVKPEEPFQPVKEATQL [F92I] | 0.0627 | 0.08 | 0.0617 | 0.0692 | 0.0714 | 0.0564 | – | 0.0526 | – | 0.0823 | 0.0641 | – | 0.111 | 0.0665 | 0.0659 | – | –
MGESLFKGPRDYNPISSSICHLTNESDGHTTSLYGIGFGPFIITNKHLFRRNNGTLVVQSLHGVFKVKDTTTLQQHLVDGRDMIIIRMPKDFPPFPQKLKFREPQREFRICLVTTNFQTKSMSSMVSDTSCTFPSGDGIFWKHWIQTKDGQCGSPLVSTRDGFIVGIHSASNFTNTNNYFTSVPKNFMELLTNQEAQQWVSGWRLNADSVLWGGHKVFMVKPEEPFQPVKEATQL [E108F] | 0.0624 | 0.0965 | – | 0.0625 | – | 0.0421 | – | – | – | – | – | – | 0.0654 | – | – | 0.0489 | –
MGESLFKGPRDYNPISSSICHLTNESDGHTTSLYGIGFGPFIITNKHLFRRNNGTLVVQSLHGVFKVKDTTTLQQHLVDGRDMIIIAMPKDFPPFPQKLKFREPQREERICLVTTNFQTKSMSSMVSDTSCTFPSGDGIFWKHWIQTKDGQCGSPLVSTRDGFIVGIHSASNFTNTNNYFTSVPKNFMELLTNQEAQQWVSGWRLNADSVLWGGHKVFMVKPEEPFQPVKEATQL [R87A] | 0.0571 | 0.0772 | 0.0791 | 0.0692 | 0.0846 | 0.0634 | 0.0687 | 0.0718 | – | 0.0968 | 0.0539 | – | – | 0.0819 | – | – | 0.07
MGESLFKGPRDYNPISSSICHLTNESDGHTTSLYGIGFGPFIITNKHLFRRNNGTLVVQSLHGVFKVKDTTTLQQHLVDSRDMIIIRMPKDFPPFPQKLKFREPQREERICLVTTNFQTKSMSSMVSDTSCTFPSGDGIFWKHWIQTKDGQCGSPLVSTRDGFIVGIHSASNFTNTNNYFTSVPKNFMELLTNQEAQQWVSGWRLNADSVLWGGHKVFMVKPEEPFQPVKEATQL [G80S] | 0.0661 | – | – | – | 0.0638 | 0.0759 | 0.0595 | – | 0.0613 | – | 0.0665 | – | 0.071 | – | 0.0644 | – | –
MGESLFKGPRDYNPISSSICHLTNESDGHTTSLYGIGFGPFIITNKHLFRRNNGTLVVQSLHGVFKVKDTTTLQQHLVDGRDMIIIRMPKDFVPFPQKLKFREPQREERICLVTTNFQTKSMSSMVSDTSCTFPSGDGIFWKHWIQTKDGQCGSPLVSTRDGFIVGIHSASNFTNTNNYFTSVPKNFMELLTNQEAQQWVSGWRLNADSVLWGGHKVFMVKPEEPFQPVKEATQL [P93V] | 0.0532 | – | – | 0.042 | – | 0.065 | 0.0585 | 0.0665 | 0.0821 | – | 0.0586 | 0.0789 | – | 0.0782 | – | – | 0.0616
MGESLFKGPRDYNPISSSICHLTNESDGHTTSLYGIGFGPFIITNKHLFRRNNGTLVVQSLHGVFKVKDTTTCQQHLVDGRDMIIIRMPKDFPPFPQKLKFREPQREERICLVTTNFQTKSMSSMVSDTSCTFPSGDGIFWKHWIQTKDGQCGSPLVSTRDGFIVGIHSASNFTNTNNYFTSVPKNFMELLTNQEAQQWVSGWRLNADSVLWGGHKVFMVKPEEPFQPVKEATQL [L73C] | 0.0647 | 0.0644 | 0.067 | 0.0628 | 0.079 | 0.0597 | 0.0622 | 0.0717 | 0.059 | – | – | 0.0688 | 0.0644 | – | 0.056 | – | –
MGESLFKGPRDYNPISSSICHLTNESDGHTTSLYGIGFGPFIITNKHLFRRNNGTLVVQSLHGVFKVKDTTTLQQHLVDGSDMIIIRMPKDFPPFPQKLKFREPQREERICLVTTNFQTKSMSSMVSDTSCTFPSGDGIFWKHWIQTKDGQCGSPLVSTRDGFIVGIHSASNFTNTNNYFTSVPKNFMELLTNQEAQQWVSGWRLNADSVLWGGHKVFMVKPEEPFQPVKEATQL [R81S] | 0.0642 | 0.0486 | – | 0.0624 | 0.0468 | – | 0.0722 | 0.057 | 0.0453 | 0.0689 | 0.0583 | – | 0.069 | 0.0711 | 0.073 | 0.0758 | 0.0656
